From PubChem BioAssay AID1347073 (National Center for Advancing Translational Sciences (NCATS), 2019)
The campaign covered roughly 45,000 compounds. About 200 (0.44%) were called active. Another 7% or so got no clear call; they are omitted. Calls follow the shape of the dose curve; as a rule, active = well fitted activation curve with a large enough effect; inconclusive = small, poorly fitted or top-dose-only effect; inactive = no such curve, though single readings can be large or run the other way. The list shows a part of the results.

Experiment: qHTS of TDP-43 Inhibitors: NCGC Sytravon Library Screen; also: nearly all actives have a fitted effect of over 55% in size; as to growth rescue (activation): 0% is about no effect
Conditions: yeast TDP-43 toxicity rescue, BacTiter-Glo growth, 24 h; series mostly up to 46.1 µM; growth rescue (activation): at the top concentration
Method in brief: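 TDP-43-expressing yeast, pregrown in raffinose, seeded at OD600 0.02 in galactose medium with compound for 24 hr at 30 deg C. Growth read by BacTiter-Glo luminescence, so rescue of toxicity appears as activation.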
Potency is read from the fitted curve at half-maximal effect.

Row | SMILES | growth rescue (activation) | Potency
1 | O=C(Cn1c(=O)sc2ccccc21)Nc1ccc(O)cc1 | inactive: -6.86% | 
2 | COc1ccc(NC2=NCCC2)cc1 | inactive: -8.91% | 
3 | CC(/C=N/n1c(-c2ccccn2)n[nH]c1=S)=C\c1ccccc1 | inactive: 7.14% | 
4 | O=C(CNS(=O)(=O)c1ccc(Br)cc1)NC1CCCC1 | inactive: 14.2% | 
5 | O=C(O)COc1ccccc1/C=N/NC(=O)CSc1nc2ccccc2n1Cc1ccccc1 | inactive: 16.4% | 
6 | CCN(C(=O)COC(=O)C(Cc1ccccc1)N1C(=O)c2ccccc2C1=O)C1CCS(=O)(=O)C1 (stereo not given) | inactive: -3.55% | 
7 | COc1ccc(NC(=O)/C(C#N)=C/c2ccc3c(c2)n(C)c(=O)n3C)cc1 | inactive: 4.01% | 
8 | Cc1nn(C)cc1/C=N/NC(=O)c1ccco1 | inactive: 7.84% | 
9 | CN(C)c1ccc(C(C(=O)NCc2ccccc2)N(Cc2cccnc2)C(=O)c2snc(C(N)=O)c2N)cc1 (stereo not given) | inactive: -2.1% | 
10 | CC(C)Oc1cccc(C(=O)C2CCCN(C(=O)c3noc4c3CCCC4)C2)c1 (stereo not given) | inactive: 13.4% | 
11 | CCCCn1c(=O)[nH]c(=O)c2c1nc(-c1cc(Br)ccc1OC)n2C | inactive: 14.7% | 
12 | COc1ccc(-n2c(SCC(=O)O)nnc2-c2ccc(NC(=O)c3ccccc3)cc2)cc1 | inactive: 13.4% | 
13 | Cc1ccccc1NC(=O)c1cc(C(=O)c2cc(Cl)ccc2O)cn(-c2ccccc2C)c1=O | inactive: 12% | 
14 | CC(C)c1c(O)nc(SCCOc2ccc(Cl)cc2)[nH]c1=O | inactive: 17.5% | 
15 | Cc1nc(SCC(=O)NNC(=O)c2cccs2)[nH]c(=O)c1C | inactive: 0.347% | 
16 | C(=N\c1nc2ccccc2n1CCN1CCOCC1)/c1cccs1 | inactive: 17% | 
17 | CN1CCN(S(=O)(=O)c2ccc(NCc3ccc4c(c3)OCO4)nc2)CC1 | inactive: 21.6% | 
18 | O=C(CSc1n[nH]c(-c2ccco2)n1)Nc1ccc(F)cc1 | inactive: 4.77% | 
19 | O=C(NC1CCCCC1)c1ccccc1C(F)(F)F | inactive: 11.1% | 
20 | CC(C)Oc1ccc(CN2CCC2(C)C(=O)Nc2ccc(Cl)c(Cl)c2)cc1 (stereo not given) | inactive: 17.8% | 
21 | COc1cccc(-c2ocnc2C(=O)Nc2ccc3c(c2)CCC3)c1 | inactive: 7.99% | 
22 | COc1ccccc1-n1cc(CN2CCN(CC(C)C)C(CCO)C2)cn1 (stereo not given) | inactive: 2.89% | 
23 | COc1ccc(S(=O)(=O)N[C@@H](Cc2ccc(Cl)cc2)C(=O)N2CC[C@@]3(O)CCCC[C@H]3C2)cc1 | inactive: -15.5% | 
24 | CC(C)(C)NC(=O)NC(=O)CN1C(=O)NC(C)(c2ccccc2)C1=O (stereo not given) | inactive: -0.467% | 

Row | SMILES | growth rescue (activation) | Potency
25 | Cc1ccc(C(=O)NCCCNC(=O)c2ccc(C)nc2)cc1 | inactive: 2.87% | 
26 | Cc1cc(NC(=O)c2ccc3c(c2)OCCO3)ccc1NC(=O)c1ccco1 | inactive: -21.8% | 
27 | Cc1onc(-c2ccccc2Cl)c1C(=O)N1CCN(c2ccc(F)cc2)CC1 | inactive: 4.88% | 
28 | COC(=O)c1sc2nc(-c3ccccc3)nc(N3CCN(C)CC3)c2c1C | inactive: 14.2% | 
29 | O=C(c1ccco1)N1CCN(C(=O)c2ccccc2NS(=O)(=O)c2ccc(F)cc2)CC1 | inactive: -1.01% | 
30 | COc1ccc(C2(CCN=Cc3ccc(N(C)C)cc3)CCOC(C)(C)C2)cc1 (stereo not given) | inactive: 12.3% | 
31 | O=S(=O)(c1ccc(S(=O)(=O)N2CCC(O)CC2)cc1)N1CCCC1 | inactive: 0.193% | 
32 | O=C(Nc1cc(Br)ccc1O)c1cc(-c2cccs2)on1 | inactive: 5.99% | 
33 | Cc1cccc(NC(=O)c2cc3ccccc3nc2C)c1 | inactive: 9.03% | 
34 | COc1ccccc1NC(=O)NC1CCS(=O)(=O)C1 (stereo not given) | inactive: -2.15% | 
35 | COc1ccc(NC(=O)C(C)N2C(=O)C3CC=C(Cl)CC3C2=O)cc1 (stereo not given) | inactive: -4.25% | 
36 | Cc1cc(C)nc(SCc2ccc(C(=O)N/N=C/c3ccncc3)cc2)n1 | inactive: 2.9% | 
37 | CC(=O)c1ccc(S(=O)(=O)N(C)CCCC(=O)N(C)Cc2c(F)cccc2Cl)cc1 | inactive: 5.94% | 
38 | CSc1ccccc1NC(=O)CN(C)CC(=O)Nc1cc(C)ccc1C | inactive: 11.7% | 
39 | O=C(/C=C/c1ccccc1)N/C(=C\c1ccco1)C(=O)O | inactive: -0.546% | 
40 | O=C(/C=C/c1cc([N+](=O)[O-])ccc1OC(F)F)Nc1ccc(OC(F)F)cc1 | inactive: 17.1% | 
41 | CN(C)S(=O)(=O)c1cccc(COC(=O)c2cccnc2Cl)c1 | inactive: 12.6% | 
42 | Cc1ccc(SC(CC(=O)c2ccc(C(C)(C)C)cc2)C(=O)O)cc1 (stereo not given) | inactive: -41.3% | 
43 | Fc1ccc(C2=CC(c3cccs3)n3nnnc3N2)cc1 (stereo not given) | inactive: 10.1% | 
44 | Cc1[nH]nc2c1C(c1ccco1)C(C#N)=C(N)O2 (stereo not given) | inactive: -1.41% | 
45 | Cc1ccc(-c2nn(CCC(=O)NC(C)C)c(=O)c3ccccc23)cc1 | inactive: 3.59% | 
46 | COc1ccc(Br)cc1C(=O)Nc1ccc(C(=O)O)cc1 |  | active: 4.47 µM
47 | CCOc1ccc(CC(=O)OCc2cc(=O)n3cc(Br)ccc3n2)cc1 | inactive: 21% | 
48 | COc1cc2c(cc1OC)CN(C(=O)CNS(=O)(=O)c1ccc(C)c(C)c1)CC2 | inactive: 13.9% | 

Row | SMILES | growth rescue (activation) | Potency
49 | COc1ccccc1/C=C/C(=O)NNC(=O)c1cccs1 | inactive: 4.34% | 
50 | COc1ccc(OC)c(S(=O)(=O)NC(=O)C2(C)CCN2C(=O)Cc2ccc(Cl)cc2Cl)c1 (stereo not given) | inactive: -9.63% | 
51 | CCCC(=O)N1CCCC(C(=O)c2cccc(OC(C)C)c2)C1 (stereo not given) | inactive: 8.21% | 
52 | CCOC(=O)Nc1sc(C)c(C)c1C(=O)OCC | inactive: -2.71% | 
53 | COc1ccccc1-c1cc2nc(NCCc3ccncc3)ccn2n1 | inactive: 15.5% | 
54 | Cc1cc(C)cc(N(CC(=O)Nc2ccccc2-c2ccccc2)S(=O)(=O)c2ccccc2)c1 | inactive: -7.76% | 
55 | COc1ccnc(Oc2ccc(F)cc2)c1-c1ncn[nH]1 | inactive: -3.25% | 
56 | O=C(COc1ccccc1Cl)NCCNC(=O)c1cnccn1 | inactive: -17.8% | 
57 | CNc1nc(CC(C)=O)ns1 | inactive: -1.57% | 
58 | N#C/C(=C(/O)c1ccc(-c2cccc([N+](=O)[O-])c2)o1)c1nc2ccccc2s1 | inactive: -13.5% | 
59 | COC(=O)COc1nc(C)c(Br)c(OC)n1 | inactive: -0.921% | 
60 | C=CCN1C(=O)C(CC(=O)Nc2ccc(OC)cc2)SC1=Nc1ccc(S(N)(=O)=O)cc1 (stereo not given) | inactive: 10.8% | 
61 | COC(=O)C(CC(=O)c1ccc(Br)cc1)n1nc(C)cc1C (stereo not given) | inactive: -7.84% | 
62 | CC(=O)Nc1ccc(NC(=O)C(C)OC(=O)c2cccs2)cc1 (stereo not given) | inactive: 22.3% | 
63 | CC(=O)c1ccc(NC(=O)CN2CCCCCC2)cc1 | inactive: -9.67% | 
64 | NC(=S)N/N=C/c1coc2ccc(Br)cc2c1=O | inactive: 25.9% | 
65 | COc1ccc(NC(=O)c2cc(-c3cc(Cl)ccc3O)n[nH]2)c(OC)c1 | inactive: 4.47% | 
66 | Cc1ccc(CN(C)CC(=O)NC(C)c2ccccc2)cc1 (stereo not given) | inactive: -3.07% | 
67 | N/C(Cc1nc(-c2ccc(Br)cc2)cs1)=N\O | inactive: 14.3% | 
68 | Cc1ccc(NC(=O)n2ncc3c(C)cccc32)c(C)c1 | inactive: -8.79% | 
69 | COc1cc(SC)ccc1C(=O)Nc1ccccn1 | inactive: 27.9% | 
70 | COc1ccc(OC)c(N(C(=O)c2snc(C(N)=O)c2N)C(C(=O)NCc2ccccc2)c2ccc(O)cc2)c1 (stereo not given) | inactive: -2.84% | 
